In PubChem BioAssay AID720709 (National Center for Advancing Translational Sciences (NCATS), 2013):
In all, about 360,000 compounds went through this assay and about 520 (0.14%) were called active. Inconclusive means that the source gave no clear call. Such entries were picked first, then a sample of the others. The call rests on the fitted dose curve; in most records, active means well fitted inhibition curve with a large enough effect; inconclusive means small, poorly fitted or top-dose-only effect; inactive means no such curve, though single readings can be large or run the other way. Potencies of inconclusive entries are left out as doubtful fits.

Biological target: Rap guanine nucleotide exchange factor 3 (Homo sapiens) (UniProt O95398)
Sequence of UniProt O95398 (O95398 whole entry, looked up): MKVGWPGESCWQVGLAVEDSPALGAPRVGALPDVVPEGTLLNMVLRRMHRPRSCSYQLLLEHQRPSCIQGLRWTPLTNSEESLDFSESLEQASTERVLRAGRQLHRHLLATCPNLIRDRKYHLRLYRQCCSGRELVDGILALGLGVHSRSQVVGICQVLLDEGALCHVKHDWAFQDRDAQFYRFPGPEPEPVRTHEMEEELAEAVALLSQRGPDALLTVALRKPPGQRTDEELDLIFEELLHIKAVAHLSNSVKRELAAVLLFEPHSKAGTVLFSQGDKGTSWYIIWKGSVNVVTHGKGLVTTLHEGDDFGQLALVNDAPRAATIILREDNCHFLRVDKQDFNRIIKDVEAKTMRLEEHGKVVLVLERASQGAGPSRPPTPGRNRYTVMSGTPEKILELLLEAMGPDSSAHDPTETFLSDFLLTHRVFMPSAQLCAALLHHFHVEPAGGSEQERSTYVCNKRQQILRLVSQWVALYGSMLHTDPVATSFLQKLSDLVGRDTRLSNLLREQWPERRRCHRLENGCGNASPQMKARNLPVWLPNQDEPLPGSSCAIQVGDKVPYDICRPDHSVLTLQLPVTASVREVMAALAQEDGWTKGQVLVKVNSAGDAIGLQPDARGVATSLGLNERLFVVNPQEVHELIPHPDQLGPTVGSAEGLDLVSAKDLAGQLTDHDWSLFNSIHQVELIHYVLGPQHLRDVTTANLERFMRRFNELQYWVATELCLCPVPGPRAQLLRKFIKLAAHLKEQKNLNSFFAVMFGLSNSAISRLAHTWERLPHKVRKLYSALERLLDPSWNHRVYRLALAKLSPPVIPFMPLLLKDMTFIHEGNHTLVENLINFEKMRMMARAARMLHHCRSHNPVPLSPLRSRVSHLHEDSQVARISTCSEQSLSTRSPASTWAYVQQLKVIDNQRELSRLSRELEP
Experiment: qHTS for Antagonist of cAMP-regulated guanine nucleotide exchange factor 3 (EPAC1): primary screen; further: nearly all actives have a fitted effect of over 50% in size;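 on activity change, negative = inhibition: plate controls were vehicle for no effect and positive control for full effect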
Details: EPAC1 GEF assay, Rap1b-BODIPY-GDP exchange fluorescence; activity change, negative = inhibition: at 115 µM (top of the series)
Potency means the concentration at half of the fitted maximal effect; tags describe the fitted curve by direction and shape.

SMILES	Potency	activity change, negative = inhibition
O=S(=O)(Nc1ccccc1C(F)(F)F)c1ccc(-c2ccccn2)s1	inconclusive [inhibitor, single point]	–
O=C(N/N=C/c1c(O)ccc2ccccc12)c1ccc(CO)nc1	inconclusive [inhibitor, full curve, poor fit]	–
CCCc1nc2sc3c(SCC(=O)NCc4ccco4)ncnc3c2c2c1CCC2	inconclusive [inhibitor, full curve]	–
CCC[n+]1cn(/C(C(=S)Nc2cccc(Cl)c2C)=C(/[O-])c2ccc(OC)c(OC)c2)c2ccccc21	inconclusive [inhibitor, single point]	–
COc1ccccc1Cc1c(C(C)(C)C)nc2ccc(C)cn12	–	inactive: -4.22%
Clc1ccc2nc(-c3ccco3)c(Cc3ccccc3)n2c1	inconclusive [inhibitor, full curve, poor fit]	–
CCCCOCCCNC(=O)C[C@@H]1C[C@@]2(C(=O)OC)CCCCC=C2N(Cc2cccc3ccccc23)C1=O	inconclusive [inhibitor, single point]	–
CCCNC(=O)c1ccc2c(=O)c(O)c(-c3ccc(C)cc3)[nH]c2c1	–	inactive: -15.8%
Cn1c(C(=O)NC2CCCCC2)cc2sccc21	–	inactive: 12.7%
O=C(Nc1cccc(C(=O)Nc2ccc(F)cc2F)c1)c1ccccc1	inconclusive [inhibitor, full curve, poor fit]	–
Cc1cc2nc3c(=O)[nH]c(=S)[nH]c3nc2cc1NC(=O)C(F)(F)F	inconclusive [inhibitor, single point]	–
Cc1cc(C)n(-c2nc3c(c(=O)[nH]c(=O)n3C)n2CCc2ccccc2)n1	–	inconclusive: -30.8% [inhibitor]
O=C(/C=C/c1ccco1)NCC1OCCc2ccccc21 (stereo unspecified)	active: 56.2 µM	–
O=C(NC1CCCCC1)c1nc(-c2c(F)cccc2F)oc1-c1ccccc1	–	inactive: 11.9%
Cc1ccc(S(=O)(=O)Nc2ccc(Br)cc2C(NCC(=O)O)c2ccccc2)cc1 (stereo unspecified)	inconclusive [inhibitor, partial curve]	–
COc1ccc(N(C)C(=O)Cc2c(C(=O)O)[nH]c3ccccc23)cc1	inconclusive [inhibitor, single point]	–
COc1ccc(NC(=O)CSc2ccccc2)c(OC)c1	inconclusive [inhibitor, single point]	–
CCN(C(=O)C=Cc1ccco1)c1ccccc1	inconclusive [inhibitor, partial curve]	–
O=C(CSc1ccc(Cl)cc1)Nc1ccccc1N1CCN(C(=O)c2ccc(Cl)cc2)CC1	–	inactive: -13.7%
OC(COCc1ccc(Cl)cc1)CN1CCCCC1 (stereo unspecified)	inconclusive [inhibitor, single point]	–
Cc1ccc(C(=O)NCC(=O)N/N=C/c2sccc2C)cc1[N+](=O)[O-]	inconclusive [inhibitor, partial curve, poor fit]	–

SMILES	Potency	activity change, negative = inhibition
O=C(c1cc(-c2ccc(Br)cc2)nc2ccccc12)N1CCC1	inconclusive [inhibitor, single point]	–
COC(=O)CCC(=O)OC1(C)C(=O)C=C2C=C(C3CC3)N(Cc3ccc4c(c3)OCO4)C=C2C1=O (stereo unspecified)	inconclusive [inhibitor, single point]	–
O=C(O)CCC(=O)NC(c1ccccc1)c1ccccc1	inconclusive [inhibitor, full curve, poor fit]	–
CN(CC(=O)Nc1ccccc1Cl)C(=O)c1cccc(S(=O)(=O)N2CCN(c3ccc(F)cc3)CC2)c1	inconclusive [inhibitor, partial curve, poor fit]	–
CN(C)C(CNC(=O)c1cccs1)c1cccnc1 (stereo unspecified)	inconclusive [inhibitor, single point]	–
CCOC(=O)c1c(C)[nH]c(C)c1C(=O)CSc1nc2ccccc2c(=O)n1-c1ccccc1C	inconclusive [inhibitor, partial curve, poor fit]	–
CCn1nc(C)c(CN2CCC(C(=O)Nc3cccc(-c4cccc(F)c4)c3)CC2)c1C	inconclusive [inhibitor, full curve, poor fit]	–
COc1ccccc1Nc1nc(Cl)nc(NC(C)(C)C)n1	–	inactive: -11.4%
COc1ccc(CCNC(=O)CCNS(=O)(=O)c2cccc(Cl)c2)cc1OC	inconclusive [inhibitor, single point]	–
CS(=O)(=O)c1ccc2c(c1)SC1=NC(=O)/C(=C/c3ccco3)C(=N)N12	inconclusive [inhibitor, partial curve]	–
Cc1cc2c(cc1C)-n1nnnc1C(N1CCN(c3ccccc3F)CC1)C(=O)N2 (stereo unspecified)	–	inactive: 5.49%
Cc1ccc(CNC(=O)c2cc(C3CC3)nc3c2cnn3C(C)C)cc1	inconclusive [inhibitor, full curve]	–
COc1ccc(C(=O)c2coc3ccc(OC(C)=O)cc23)cc1	inconclusive [inhibitor, partial curve]	–
Cc1[nH]c2ccc(Br)cc2c(=O)c1CN1CCCCCC1	–	inactive: -19%
CSCCC(NS(=O)(=O)/C=C/c1ccccc1)C(=O)NCCc1ccc(S(N)(=O)=O)cc1 (stereo unspecified)	inconclusive [inhibitor, partial curve, poor fit]	–
O=[N+]([O-])c1cc(/C=N\Nc2nc(-c3ccccc3)cs2)ccc1O	inconclusive [inhibitor, partial curve]	–
COc1ccc(-c2noc(N3CCCC(C(=O)Nc4ccccc4F)C3)n2)cc1 (stereo unspecified)	inconclusive [inhibitor, single point]	–
O=C(CSc1nc2ccccc2c(=O)n1CCCN1CCOCC1)N1CCN(c2ccccc2)CC1	inconclusive [inhibitor, single point]	–
O=C1CS(=O)(=O)N(Cc2cccc(F)c2)c2ccc(Br)cc21	inconclusive [inhibitor, partial curve]	–
Cn1ccnc1C1CCCCN1C(=O)c1cc(COc2ccc(F)cc2F)on1 (stereo unspecified)	inconclusive [inhibitor, single point]	–
